# Where “and” joins values, the source holds several entries; their conditions need not be identical. Identical values can stand only once. Hit rate of the full screen: of about 220,000 compounds, about 16,000 (7.3%) were called active. This list was built around the results that the source calls inconclusive (neither active nor inactive); the mix of calls is not that of the screen. Calls follow the shape of the dose curve; as a rule, active = well fitted inhibition curve with a large enough effect (not every such curve was filed as active); inconclusive = small, poorly fitted or top-dose-only effect, or another doubt; inactive = no such curve, though single readings can be large or run the other way. Where the call is inconclusive, the potency comes from a doubtful curve fit.
# Target: Aldehyde dehydrogenase 1A1 (Homo sapiens) (UniProt P00352)
# Assay: qHTS Assay for Inhibitors of Aldehyde Dehydrogenase 1 (ALDH1A1);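 as to activity, negative = inhibition: plate controls were no enzyme wells and a reference inhibitor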
# Conditions: Purified ALDH1A1, NADH fluorescence, propionaldehyde substrate; series mostly up to 75.3 µM
# Potency is read from the fitted curve at half-maximal effect; tags tell the direction and shape of the fitted curve.
# UniProt P00352, sequence (P00352 whole entry, looked up): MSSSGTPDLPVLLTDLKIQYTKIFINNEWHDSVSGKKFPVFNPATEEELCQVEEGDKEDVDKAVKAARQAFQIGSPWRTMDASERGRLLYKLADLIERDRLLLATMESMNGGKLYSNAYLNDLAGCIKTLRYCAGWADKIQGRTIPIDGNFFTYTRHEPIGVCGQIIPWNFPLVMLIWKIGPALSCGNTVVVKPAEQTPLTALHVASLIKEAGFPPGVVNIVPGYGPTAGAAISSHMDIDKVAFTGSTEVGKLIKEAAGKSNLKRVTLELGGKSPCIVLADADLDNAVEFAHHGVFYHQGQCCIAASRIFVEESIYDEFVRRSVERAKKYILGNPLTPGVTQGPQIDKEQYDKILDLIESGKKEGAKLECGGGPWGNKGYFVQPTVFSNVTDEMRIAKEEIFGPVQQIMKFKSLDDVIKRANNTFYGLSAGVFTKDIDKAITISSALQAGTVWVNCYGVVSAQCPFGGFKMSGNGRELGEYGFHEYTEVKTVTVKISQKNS
SMILES,Potency,"activity, negative = inhibition"
CN(C)c1cc(N)c2c(n1)CCC2 (tested in a mixture with another compound),"inconclusive: 35.5 µM [inhibitor, single point]",
CCOC(=O)C(C)Oc1cc(C)cc2oc(=O)c3c(c12)CCCC3 (stereo not drawn),"inconclusive: 35.5 µM [inhibitor, partial curve]",
Cc1cc(C=O)c(C)n1C1CCCCC1,active: 22.4 µM,
Oc1cc(Cl)ccc1Cl,"inconclusive: 35.5 µM [inhibitor, single point]",
Cc1nnc2ccc(-c3cccc(C(F)(F)F)c3)nn12,"inconclusive: 39.8 µM [inhibitor, single point]",
Cc1ccc(N2C(=O)NC(=O)/C(=C/C=C/c3ccco3)C2=O)cc1,"inconclusive: 20 µM [inhibitor, partial curve]",
CCN1CCN(Cc2ccc(C)cc2)CC1,"inconclusive: 8.91 µM [inhibitor, single point]",
N#CC(C#N)=Cc1ccc(C=C(C#N)C#N)cc1,active: 0.355 µM,
O=C1CCCC2[C@@H]3CCCN4CCC[C@@H](CN12)C34 (stereo partly drawn),inactive,
CC(C)C1C(=O)N2CCC[C@H]2[C@]2(O)O[C@](NC(=O)[C@@H]3C=C4c5cccc6[nH]cc(c56)C[C@H]4N(C)C3)(C(C)C)C(=O)N12 (stereo partly drawn),"inconclusive: 28.2 µM [inhibitor, partial curve]",
CC1=NN(c2ccccc2)C(=O)/C1=C/c1c(O)[nH]c(=O)[nH]c1=O,"inconclusive: 0.891 µM [inhibitor, partial curve, poor fit]",
CCOc1ccc(N2C(=O)NC(=O)/C(=C/c3cnc(SC)nc3)C2=O)cc1,"inconclusive: 35.5 µM [inhibitor, single point]",
COc1ccc(C(CC(=O)N2CCC3(CC2)OCCO3)NS(=O)(=O)c2ccc(C)cc2)cc1 (stereo not drawn),"inconclusive: 39.8 µM [inhibitor, single point]",
O=c1[nH]c(=O)n(CCC2=CCCCC2)c(O)c1C=Nc1cccc(F)c1,"inconclusive: 37.7 µM [inhibitor, single point]",
Cc1cc(OCC(=O)Nc2cc(C)nn2-c2ccccn2)c2c3c(c(=O)oc2c1)CCC3,"inconclusive: 35.5 µM [inhibitor, single point]",
O=C(COC(=O)Cc1ccccc1)NC12CC3CC(CC(C3)C1)C2,"inconclusive: 35.5 µM [inhibitor, single point]",
O=C(C1CCC(=O)N1C1CCCCC1)N1CCC2(CC1)OCCO2 (stereo not drawn),"inconclusive: 22.4 µM [inhibitor, partial curve, poor fit]",
CCc1ccc(N2C(=O)NC(=O)C(Cc3ccc(OC)cc3OC)C2=O)cc1 (stereo not drawn),"inconclusive: 39.8 µM [inhibitor, single point]",
CCCCNC(=O)c1c(N)n(Cc2ccc3c(c2)OCO3)c2nc3ccccc3nc12,"inconclusive: 35.5 µM [inhibitor, partial curve]",
Cc1c2cnn(CC(=O)N3CCC4(CC3)OCCO4)c(=O)c2c(C)n1Cc1ccc(F)cc1,inactive,
O=C(Cc1ccccc1)NC(Oc1ccccc1Cl)C(Cl)(Cl)Cl (stereo not drawn),"inconclusive: 22.4 µM [inhibitor, single point]",
CC/C(=N\Nc1cccc2ccccc12)c1c(O)[nH]c(=O)[nH]c1=O,active: 14.1 µM,
CN1C(=O)/C(=C/c2ccc(N3CCCCCC3)o2)C(=O)NC1=S,"inconclusive: 28.2 µM [inhibitor, single point]",
NC[C@@H](O)CSP(=O)(O)O,,inactive: 5.54% [at 13.5 µM]
COc1ccc(NC(=O)N2CCC3(CC2)OCCO3)c(OC)c1,"inconclusive: 39.8 µM [inhibitor, single point]",

SMILES,Potency,"activity, negative = inhibition"
CN1CCc2nc3sc(C(=O)NC(C)(C)C)c(N)c3cc2C1,inactive,
COc1ccc(CN2CCCC(C(=O)c3sccc3C)C2)cc1O (stereo not drawn),inactive,
CC1CCc2c(sc3nc(CSc4n[nH]c(N)n4)[nH]c(=O)c23)C1 (stereo not drawn),"inconclusive: 31.6 µM [inhibitor, single point]",
C=CCN1C(=O)CSc2ccc(C(=O)N3CCC4(CC3)OCCO4)cc21,"inconclusive: 44.7 µM [inhibitor, single point]",
O=C(c1cc(C(=O)NCc2ccccc2)c(=O)n(Cc2ccccc2)c1)c1cc(Br)ccc1O,inactive,
O=C(Oc1ccccc1)N1CCC2(CCN(Cc3nccs3)CC2)CC1,inactive,
O=C1NC(=S)NC(=O)C1=Cc1cccn1-c1ccc(O)cc1,active: 20 µM,
COc1ccc(OC)c(N2C(=O)NC(=O)C3(Cc4cc(C)ccc4N(C)C3)C2=O)c1 (stereo not drawn),"inconclusive: 35.5 µM [inhibitor, single point]",
O=C(c1ccc(CS(=O)(=O)c2ccccc2)o1)N1CCC2(CC1)OCCO2,active: 22.4 µM,
Cc1ccc(N2C(=O)NC(=O)/C(=C\c3cnc(-c4ccccc4)nc3)C2=O)cc1,active: 8.91 µM,
Cc1c(C=C2C(=O)NC(=O)NC2=O)c(=O)n(-c2ccccc2)n1C,inactive,
COc1cc(CCN)ccc1O,inactive,
O=C(Nc1ccc2nc(-c3cccs3)c(-c3cccs3)nc2c1)NC1CC1,"inconclusive: 39.8 µM [inhibitor, single point]",
CN1CCC(C)(O)C2CCCCC21 (stereo not drawn),active: 10 µM,
CCOP(=S)(OCC)SCOC(=O)NCC(=O)OC,"inconclusive: 25.1 µM [inhibitor, single point]",
CCOP(=O)(OCC)c1nc(-c2cccc3ccccc23)oc1NCCc1ccc(OC)cc1,"inconclusive: 25.1 µM [inhibitor, partial curve]",
COc1cc2c(cc1OC)-c1c(OC)c(OC)cc3c1[C@H](C2)[N+](C)(C)CC3,"inconclusive: 39.8 µM [inhibitor, single point]",
CC(C)C(C)(NC(=O)c1cccn(Cc2ccc3c(c2)OC(F)(F)O3)c1=O)C(N)=O (stereo not drawn),"inconclusive: 39.8 µM [inhibitor, single point]",
CCN(CC)C(=O)c1ccc(NC(=O)CCCSc2ccccc2)cc1,inactive,
CCCCn1c(=O)c(C(=O)NCc2ccncc2)c(O)c2ccccc21,"inconclusive: 20 µM [inhibitor, partial curve]",
Brc1ccc(CN2CCNCC2)s1,"inconclusive: 39.8 µM [inhibitor, single point]",
CN(C)c1ccc(NC(=O)CN2CCC(O)(c3ccccc3)CC2)cc1,"inconclusive: 15.8 µM [inhibitor, partial curve]",
CCC1C2CC3C4N(C)c5ccccc5[C@]45CC(C2C5O)N3C1O (stereo partly drawn),inactive,
CCOc1ccc(-n2c(O)c(C=NCCN3CCNCC3)c(=O)[nH]c2=O)cc1,"inconclusive: 39.8 µM [inhibitor, single point]",
O=c1[nH]c(=O)n(Cc2ccc(F)cc2)c(O)c1C=NCc1cccnc1,inactive,

SMILES,Potency,"activity, negative = inhibition"
O=C(NCc1ccc(C(=O)N2CCC3(CC2)OCCO3)cc1)c1ccc2c(c1)OCO2,inactive,
CCCCC1C(=O)NC(=S)NC1=O,active: 31.6 µM,
Cn1c(CN2CCN(C(=O)COc3ccccc3)CC2)nc2cc([N+](=O)[O-])ccc21,"inconclusive: 39.8 µM [inhibitor, single point]",
C=CC(C)=O,active: 20 µM,
CC(=O)NC(=O)NC(C)Cc1ccccc1 (stereo not drawn),inactive,
O=c1c2ccccc2nc(-c2ccco2)n1-c1ccncc1,active: 28.2 µM,
CCOCCCn1c(N)c(C(=O)Nc2sc3c(c2C(=O)OC)CCCC3)c2nc3ccccc3nc21,"inconclusive: 31.6 µM [inhibitor, partial curve]",
S=C=Nc1cccc2ccccc12,"inconclusive: 35.5 µM [inhibitor, partial curve]",
COc1cc2c(cc1OC)-c1c(OC)c(OC)cc3c1[C@H](C2)N(C)CC3,"inconclusive: 28.2 µM [inhibitor, single point]",
O=C(COc1ccc(Cl)cc1)N1CCN(Cc2ccc([N+](=O)[O-])cc2)CC1,"inconclusive: 29.9 µM [inhibitor, single point]",
CCN(CC)CCCN=Cc1c(O)n(Cc2ccc(F)cc2)c(=O)[nH]c1=O,inactive,
CC1CCCCC1NC(=O)Cn1nnc2ccccc2c1=O (stereo not drawn),"inconclusive: 29.9 µM [inhibitor, single point]",
COc1ccc(-n2c(C)nc3cc(C(=O)N4CCC5(CC4)OCCO5)ccc32)cc1,"inconclusive: 39.8 µM [inhibitor, single point]",
COc1ccc(C2SCC(=O)Nc3c2c(=O)[nH]n3C2CCCCCC2)cc1 (stereo not drawn),inactive,
COC(=O)C(c1ccccc1)C1CCCCN1 (stereo not drawn),"inconclusive: 39.8 µM [inhibitor, single point]",
CC(Cc1ccccc1Sc1ccc(O)cc1)N(C)C (stereo not drawn),inactive,
OC12ONC(c3ccccn3)C1N1CCC2CC1 (stereo not drawn),inactive,
C[N+](C)(C)Cc1ccccc1,"inconclusive: 39.8 µM [inhibitor, single point]",
O=C1NC(=O)N(Cc2ccccc2)C(=O)/C1=C\N1CCCc2ccccc21,inactive,
COc1cc2[nH]c(=O)n(-c3ccc(C)cc3)c(=O)c2cc1OC,"inconclusive: 28.2 µM [inhibitor, single point]",
NC(=O)Cn1cc(C(=O)c2ccccc2F)c2ccccc21,"inconclusive: 25.1 µM [inhibitor, single point]",
Cc1cc(NC(=O)CCl)on1,active: 3.55 µM,
CCC(COC(=O)c1cc(OC)c(OC)c(OC)c1)(c1ccccc1)N(C)C (stereo not drawn),"inconclusive: 28.2 µM [inhibitor, partial curve] and inconclusive: 20 µM [inhibitor, partial curve]",

# From PubChem BioAssay AID1030 (National Center for Advancing Translational Sciences (NCATS), 2008)
